In PubChem BioAssay (NCATS):
Several values for one entry are separate records, joined by “and”; a condition that tells them apart may be missing. Equal entries are not always repeated. The shares of active, inactive and inconclusive entries below differ from those in the screen. For some of these results: Where the call is inconclusive, the potency comes from a doubtful curve fit. Activity calls are given as the source filed them. Calls come from the whole dose curve; as a rule, active = well fitted curve in the direction sought with a large enough effect; inconclusive = small, poorly fitted or top-dose-only effect, or another doubt; inactive = no such curve, though single readings can be large; an effect the other way counts as inactive or inconclusive.

How the values were obtained:
[1] = target: Nuclear receptor ROR-gamma (Homo sapiens) (UniProt P51449); experiment: qHTS assay for small molecule antagonists of the retinoid-related orphan receptor gamma (ROR-gamma) signaling pathway (AID 651802); conditions: ROR-gamma antagonist cell reporter assay; note: potency is the fitted concentration of half-maximal effect; nearly all actives have a fitted effect of over 60% in size
Sequence of UniProt P51449 (P51449 whole entry, looked up): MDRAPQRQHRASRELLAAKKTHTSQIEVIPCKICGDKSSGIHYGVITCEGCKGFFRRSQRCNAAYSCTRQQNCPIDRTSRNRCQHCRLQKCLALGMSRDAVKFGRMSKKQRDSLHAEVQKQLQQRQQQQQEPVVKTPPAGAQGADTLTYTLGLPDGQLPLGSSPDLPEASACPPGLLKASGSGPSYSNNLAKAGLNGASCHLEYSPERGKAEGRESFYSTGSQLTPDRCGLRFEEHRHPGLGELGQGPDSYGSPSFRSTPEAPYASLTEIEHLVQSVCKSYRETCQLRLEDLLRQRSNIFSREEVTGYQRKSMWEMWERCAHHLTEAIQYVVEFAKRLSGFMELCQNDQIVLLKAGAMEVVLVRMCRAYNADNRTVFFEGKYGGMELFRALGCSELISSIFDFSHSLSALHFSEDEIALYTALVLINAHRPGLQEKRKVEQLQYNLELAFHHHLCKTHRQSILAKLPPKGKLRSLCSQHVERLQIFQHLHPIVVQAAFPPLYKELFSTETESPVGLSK
Summary of the method: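 CHO cells carrying TET-inducible ROR-gamma and an ROR response element–luciferase reporter were exposed to compound, then induced with doxycycline. After 16hr at 37C, luminescence was read; lower signal indicates antagonism.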

[2] = qHTS for Inhibitors of Ubiquitin-specific Protease USP2a Using CHOP2 as the Reporter: K633 Counterscreen (AID 652168); conditions: No-enzyme DiUb K48 IQF substrate fluorescence interference, kinetic; at 57.5 µM (top of the series); note: % of control where 0% means no effect
Summary of the method: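 Cell-free interference counterscreen without USP2a: compounds pinned into enzyme-free buffer (20 mM Tris pH 8, 2 mM beta-mercaptoethanol, 0.05% Chaps), then DiUb K48-4IQF substrate added (100 nM stock); fluorescence read kinetically, Ex 525/Em 598.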

[3] = qHTS for Inhibitors of Ubiquitin-specific Protease USP2a Using CHOP2 as the Reporter: Cytotox Assay (AID 652170); conditions: HCT116 viability, CellTiter-Glo luminescence, 72 h; at 46.1 µM (top of the series);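 note: HCT116 human colon cancer cells at 600 per well; plate controls were DMSO-treated cells for no effect and wells without cells for full effect; nearly all actives have a fitted effect of over 70% in size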
From the text: Homeostasis of cellular proteins is maintained through a combination of synthesis and degradation. The pathway that accounts for the majority of protein degradation is the ubiquitin-proteasomal pathway. Ubiquitin (Ub) is highly conserved in all cells and the generation of a multi-Ub chain typically targets proteins for degradation by the proteasome. However, ubiquitination is highly reversible and dynamic. Deubiquitination, the reverse process, is catalyzed through the action of enzymes referred to as isopeptidases or deubiquitinating enzymes (DUBs). This group of enzymes is collectively responsible for maintaining adequate pools of free ubiquitin and regulating the ubiquitination status of cellular proteins. The class of DUBs referred to as the ubiquitin-specific proteases (USP) family functions endoproteolytically to cleave Ub chains from a wide range of protein substrates. […] This assays monitors cell proliferation by quantitating the amount of ATP present by luciferase, which in the presence of ATP converts pro-luciferin into the luminescent luciferin product. A compound that inhibits cell proliferation would result in a decrease in luminescence. […]
5 uL of HCT116 (600 cells/well) were plated into a 1536 well plate and then incubated for 6 hr at 37 deg C, 5% CO2. […] Then, 3 uL of Cell Titer Glo is added, the plate is left at RT for 10 min, before luminescence is detected using the ViewLux.

[4] = target: DNA polymerase iota (Homo sapiens) (UniProt Q9UNA4); experiment: qHTS for Inhibitors of Polymerase Iota: Confirmatory Assay for Cherry-picked Compounds (AID 720496); conditions: Pol iota primer extension, TAMRA/BHQ fluorescence; note: potency is the fitted concentration of half-maximal effect
Sequence of UniProt Q9UNA4 (Q9UNA4 whole entry, looked up): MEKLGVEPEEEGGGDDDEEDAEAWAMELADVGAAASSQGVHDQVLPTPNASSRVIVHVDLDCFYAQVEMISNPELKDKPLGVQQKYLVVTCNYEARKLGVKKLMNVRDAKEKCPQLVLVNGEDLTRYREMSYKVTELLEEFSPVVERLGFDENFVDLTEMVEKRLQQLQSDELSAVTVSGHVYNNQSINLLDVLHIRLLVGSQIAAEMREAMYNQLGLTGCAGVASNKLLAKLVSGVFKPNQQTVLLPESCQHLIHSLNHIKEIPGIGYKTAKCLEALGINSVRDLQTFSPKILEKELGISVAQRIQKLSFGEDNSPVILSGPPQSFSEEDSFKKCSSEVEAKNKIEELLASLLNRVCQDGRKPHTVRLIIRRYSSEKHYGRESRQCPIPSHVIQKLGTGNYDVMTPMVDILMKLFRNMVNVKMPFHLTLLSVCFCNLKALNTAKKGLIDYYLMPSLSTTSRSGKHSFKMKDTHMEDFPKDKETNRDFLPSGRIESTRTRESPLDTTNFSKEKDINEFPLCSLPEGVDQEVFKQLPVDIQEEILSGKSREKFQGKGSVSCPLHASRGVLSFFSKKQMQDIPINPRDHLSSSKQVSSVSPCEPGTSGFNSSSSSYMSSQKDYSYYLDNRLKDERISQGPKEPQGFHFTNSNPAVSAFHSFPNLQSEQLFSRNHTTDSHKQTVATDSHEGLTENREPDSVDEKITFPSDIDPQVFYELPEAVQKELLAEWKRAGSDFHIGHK
Summary of the method: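 Buffer-only wells, without enzyme, serve as negative control. Test wells hold 10 nM Pol iota preincubated 15 min with compound before 50 nM final fluorogenic DNA substrate is added; signal is read at 0 and 10 min.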

[5] = target: RecQ-like DNA helicase BLM (Homo sapiens) (UniProt P54132); experiment: qHTS for Inhibitors of WRN Helicase: BLM Helicase Counterscreen for WRN Inhibitors (AID 720503); conditions: Recombinant BLM helicase DNA unwinding, red fluorescence; note: potency is the fitted concentration of half-maximal effect; nearly all actives have a fitted effect of over 60% in size
Sequence of UniProt P54132 (P54132 whole entry, looked up): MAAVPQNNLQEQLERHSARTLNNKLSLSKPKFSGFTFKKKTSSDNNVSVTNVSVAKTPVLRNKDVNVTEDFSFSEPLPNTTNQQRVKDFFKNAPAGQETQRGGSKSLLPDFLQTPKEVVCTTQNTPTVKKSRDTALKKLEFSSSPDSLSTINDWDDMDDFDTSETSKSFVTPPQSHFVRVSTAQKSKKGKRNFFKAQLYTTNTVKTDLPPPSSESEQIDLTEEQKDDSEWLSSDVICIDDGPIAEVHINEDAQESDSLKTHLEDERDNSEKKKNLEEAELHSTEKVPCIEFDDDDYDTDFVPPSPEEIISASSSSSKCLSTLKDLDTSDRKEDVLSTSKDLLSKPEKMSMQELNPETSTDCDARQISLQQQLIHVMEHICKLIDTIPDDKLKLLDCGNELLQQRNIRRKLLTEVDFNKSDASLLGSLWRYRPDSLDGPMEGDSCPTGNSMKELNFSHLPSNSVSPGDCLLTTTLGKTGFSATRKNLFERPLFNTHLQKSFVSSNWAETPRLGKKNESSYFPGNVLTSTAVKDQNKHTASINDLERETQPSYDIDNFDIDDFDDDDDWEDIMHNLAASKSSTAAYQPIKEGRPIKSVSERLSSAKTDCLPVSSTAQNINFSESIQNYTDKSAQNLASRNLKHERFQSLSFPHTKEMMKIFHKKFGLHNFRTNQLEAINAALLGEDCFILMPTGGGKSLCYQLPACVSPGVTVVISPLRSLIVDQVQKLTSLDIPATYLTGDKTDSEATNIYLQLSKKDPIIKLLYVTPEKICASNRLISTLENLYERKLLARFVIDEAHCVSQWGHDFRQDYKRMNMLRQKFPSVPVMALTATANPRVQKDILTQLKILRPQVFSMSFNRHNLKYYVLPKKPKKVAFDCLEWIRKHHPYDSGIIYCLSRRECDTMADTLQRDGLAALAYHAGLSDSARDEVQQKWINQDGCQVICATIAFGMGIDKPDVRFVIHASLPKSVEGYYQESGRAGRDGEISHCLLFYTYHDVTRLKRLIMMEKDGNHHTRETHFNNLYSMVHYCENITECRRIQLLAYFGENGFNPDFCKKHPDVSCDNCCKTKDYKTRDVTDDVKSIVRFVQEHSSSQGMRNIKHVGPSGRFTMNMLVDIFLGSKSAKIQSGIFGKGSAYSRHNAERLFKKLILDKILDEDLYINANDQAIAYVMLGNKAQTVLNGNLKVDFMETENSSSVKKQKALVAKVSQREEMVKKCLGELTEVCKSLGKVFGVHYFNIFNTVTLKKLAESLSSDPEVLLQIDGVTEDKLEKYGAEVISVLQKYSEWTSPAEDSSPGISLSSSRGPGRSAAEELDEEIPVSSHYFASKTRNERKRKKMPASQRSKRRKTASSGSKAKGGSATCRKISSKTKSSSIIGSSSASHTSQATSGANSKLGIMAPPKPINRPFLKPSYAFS
Summary of the method: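 1 nM BLM, Tris pH 8.0/NaCl/MgCl2/DTT/Tween-20; cpd preinc 15 min RT; start w/ 100 nM DNA + 2 mM ATP final; fluorescence (ex 525/em 598) two reads 15 min apart; normalized to enzyme-free and DMSO controls.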

[6] = target: Flap endonuclease 1 (Homo sapiens) (UniProt P39748); experiment: qHTS Assay for the Inhibitors of FEN1: Confirmatory Assay for Cherry-picked Compounds (AID 720498); conditions: FEN1 flap cleavage, TAMRA/BHQ2 fluorogenic DNA substrate; note: potency is the fitted concentration of half-maximal effect; nearly all actives have a fitted effect of over 60% in size
Sequence of UniProt P39748 (P39748 whole entry, looked up): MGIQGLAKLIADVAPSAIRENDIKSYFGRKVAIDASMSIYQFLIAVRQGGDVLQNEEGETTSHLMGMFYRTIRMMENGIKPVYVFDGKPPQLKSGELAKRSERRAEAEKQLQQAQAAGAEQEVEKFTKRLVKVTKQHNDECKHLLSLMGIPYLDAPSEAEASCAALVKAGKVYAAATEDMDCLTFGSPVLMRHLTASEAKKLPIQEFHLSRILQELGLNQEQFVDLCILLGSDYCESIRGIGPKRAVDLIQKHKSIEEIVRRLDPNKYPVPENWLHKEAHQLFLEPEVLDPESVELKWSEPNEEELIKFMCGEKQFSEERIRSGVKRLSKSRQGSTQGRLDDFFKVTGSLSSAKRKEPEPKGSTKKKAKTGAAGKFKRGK
Summary of the method: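 FEN1 at 10 nM was preincubated with compound for 15 min at room temperature, then 50 nM (final) double-flap DNA substrate was added. TAMRA fluorescence released from the BHQ-2-quenched flap was read at 0 and 15 min (ex 525/em 598 nm).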

[7] = target: DNA polymerase eta (Homo sapiens) (UniProt Q9Y253); experiment: qHTS for Inhibitors of Polymerase Eta: Confirmatory Assay for Cherry-picked Compounds (AID 720502); conditions: Pol eta primer extension, TAMRA/BHQ fluorescence, 10 min; note: potency is the fitted concentration of half-maximal effect
Sequence of UniProt Q9Y253 (Q9Y253 whole entry, looked up): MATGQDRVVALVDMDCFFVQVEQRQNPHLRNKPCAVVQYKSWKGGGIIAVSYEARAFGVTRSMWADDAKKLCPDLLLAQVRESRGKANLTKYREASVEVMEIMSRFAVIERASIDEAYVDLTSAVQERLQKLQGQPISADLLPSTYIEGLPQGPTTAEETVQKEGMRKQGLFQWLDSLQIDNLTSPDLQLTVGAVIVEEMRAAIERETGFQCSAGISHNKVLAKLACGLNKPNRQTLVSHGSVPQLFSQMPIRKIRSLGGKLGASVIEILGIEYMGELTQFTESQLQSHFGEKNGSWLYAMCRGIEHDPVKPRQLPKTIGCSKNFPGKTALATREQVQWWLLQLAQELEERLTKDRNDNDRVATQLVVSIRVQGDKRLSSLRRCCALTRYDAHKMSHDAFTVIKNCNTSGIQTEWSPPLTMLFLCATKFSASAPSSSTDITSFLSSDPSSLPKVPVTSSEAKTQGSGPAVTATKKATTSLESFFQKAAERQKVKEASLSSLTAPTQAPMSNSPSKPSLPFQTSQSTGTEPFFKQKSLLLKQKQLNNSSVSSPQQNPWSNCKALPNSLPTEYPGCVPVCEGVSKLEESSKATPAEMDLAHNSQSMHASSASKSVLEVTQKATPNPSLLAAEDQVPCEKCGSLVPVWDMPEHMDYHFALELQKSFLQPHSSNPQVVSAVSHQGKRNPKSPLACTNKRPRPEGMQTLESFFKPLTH
Summary of the method: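 10 nM Pol eta + cpd, 15 min RT; start w/ 50 nM final primer/TAMRA-reporter/BHQ-2-template substrate; kinetic read 0 and 10 min, ex 525/em 598 nm. Buffer-only wells = negative control.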
Tags give direction and shape of the fitted curve.

**Q.** Which Potency [1] does the source give for `COc1ccc2c(c1)c(CC(=O)O)c(C)n2C(=O)c1ccc(Cl)cc1` here?
**A.** The Potency was inconclusive: 9.44 µM [inhibitor, full curve, poor fit].

**Q.** For `Cc1cc(NS(=O)(=O)c2ccc(N)cc2)no1`, which activity change, negative = inhibition [2] is on record?
**A.** The activity change, negative = inhibition was inactive: 2.96% and inactive: -8.47%.

**Q.** And the activity change, negative = cytotoxicity [3]?
**A.** The activity change, negative = cytotoxicity was inactive: 1.73% and inactive: 18.7%.

**Q.** With `Oc1ccc(C2CNCCc3c2cc(O)c(O)c3Cl)cc1` (configuration not stated) as the compound, how does the Potency [4] read?
**A.** The Potency was inconclusive: 84.4 µM [inhibitor, single point].

**Q.** What about the Potency [5] of the same compound?
**A.** The Potency was active: 24.1 µM.

**Q.** Which Potency [6] does the source give for `CN(C)CCCNC(=O)c1ccc(-c2cc(O)c3ncccc3c2)cc1` here?
**A.** Its Potency is inconclusive: 33.8 µM [inhibitor, partial curve].

**Q.** What about the Potency [7] of the same compound?
**A.** Its Potency is inconclusive: 84.9 µM [inhibitor, single point].
